The structures appear in SMILES notation.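 Each compound was tested at five concentrations against cells in 96-well plates for 48 hours. GI50 marks 50% less growth.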 Calls of active or inactive are those of the source. No stated cut-off is given here; in the data, active = GI50 up to about 1.1 µM and inactive = higher. Bounds are passed on as bounds.

The experiment has as its system NCI-H322M. In words: growth of human tumour cells (NCI), 48 h.
In the case of `O=[N+]([O-])C(=C1Nc2ccccc2N1)C(Cl)=C(Cl)Cl`, the GI50 is inactive: > 100 µM.

For `CC(=O)Nc1cc(CN2CCCCC2)c(O)c2ncccc12`, the GI50 was inactive: 31 µM. Then `O=c1cc(N2CCCC2)[nH]c(=O)n1-c1ccc(Cl)cc1`, with inactive: > 100 µM.

As for `CC(=O)O[C@H]1CC[C@H]2[C@@H]3CCc4cc(O)c(I)cc4[C@H]3CC[C@]12C`, the GI50 was inactive: 15.9 µM.

Regarding `CN(Cc1cc(Cl)cc(Cl)c1)CC(C(=O)c1ccccc1)c1ccccc1` (stereo not given), the GI50 is inactive: 17.7 µM. Then `Cc1cc(C)c2c(=N)c3ccccc3n(CCCCCCCCn3c4ccccc4c(=N)c4c(C)cc(C)nc43)c2n1`, with inactive: 1.12 µM; and `CCOc1cccc(/C=N/N=C2\C(=O)Nc3c(Cl)cc(Cl)cc32)c1O`, with inactive: > 100 µM. Then `Cc1cn(C2CC(N=[N+]=[N-])C(C(=O)O)O2)c(=O)[nH]c1=O` (stereo not given), with inactive: > 100 µM; and `CSC1=N/C(=C\c2ccc(Cl)cc2)C(=O)N1CN1CCOCC1`, with inactive: > 100 µM; and `CCN(CC)CCn1ncc2ccc3c(c(=O)c4cccnc4n3CCN(CC)CC)c21`, with active: 0.839 µM. On to `C/C=C/c1c(O)c(=O)c2c(OC)cc(OC)c3c4c(OC)cc(OC)c5c(=O)c(O)c(/C=C/C)c(c1c23)c54`, for which the GI50 is inactive: 19 µM.

For the molecule `COc1cc(C2C(Cl)C(=O)N2NC(=O)Cc2ccccc2)ccc1O` (stereo not given), the GI50 is inactive: > 100 µM. For the molecule `COc1ccc(C2=C(N)c3c(OC)cccc3C2=O)cc1`, the GI50 was inactive: > 100 µM. To `CC(C)(C)N/N=C(\C(=O)Nc1nnc(S)[nH]1)C1C(=O)Nc2ccccc2[S+]1[O-]` (stereo not given) belongs inactive: > 100 µM.

As to `COC(=O)CNC(=O)CSc1nnc(COc2ccc(Cl)cc2)n1-c1ccccc1`, the GI50 was inactive: 18.9 µM. Then `C=CC[C@@]1(OC(C)=O)C(=O)C(=O)OC1C1COC(C)(C)O1` (stereo not given in full), with inactive: 49.8 µM; and `CC(=O)/C=C1/C(=O)C(CC(C)C)=C1CC(C)C`, with inactive: > 100 µM.

For the molecule `C=CCN1CC2CN=NC2(C#N)C1` (stereo not given), the GI50 was inactive: > 100 µM. Then `CCOC(=O)C1C2C1C1C(C(=O)OCC)C21` (stereo not given), with inactive: > 100 µM; and `C[C@@H](NC(=O)Nc1cccc(C(=O)Nc2cc(C(C)(C)C)ccc2C(=O)O)n1)c1ccccc1`, with inactive: 54.3 µM; and `CCOC(=O)c1nc2ccccc2nc1Oc1cc(OC)c(OC)c(OC)c1`, with inactive: > 100 µM. To `N#Cc1c(-c2ccc(Cl)cc2)cc(-c2ccc(Nc3ccnc4cc(C(F)(F)F)ccc34)cc2)nc1N` belongs inactive: 20.7 µM.

Regarding `CC(=O)N1N=C(c2c(O)ccc3ccccc23)CC1C(=O)c1ccco1` (stereo not given), the GI50 is inactive: 37 µM. Then `O=c1cc(CO)oc2c3c(cc(O)c12)OCC(COC1OC(CO)C(O)C(O)C1O)=CC3` (stereo not given), with inactive: > 100 µM; and `O=C(O)Cc1ccc(Oc2nc3ccccc3nc2C(=O)O)cc1`, with inactive: > 100 µM; and `Cc1cc(N(CCC#N)CCC#N)ccc1C(/N=N/c1ccc([N+](=O)[O-])cc1)=N\NC(=O)c1cc(Cl)ccc1C(=O)c1ccccc1`, with inactive: 15.8 µM. To `CC1=C(C(=O)NNC(=O)c2ccccc2)CC(C(=O)NNC(=O)c2ccccc2)=C(C)N1` belongs inactive: > 100 µM. Then `CC(=O)N1CN2C(=O)CCC2c2cc(C)ccc21` (stereo not given), with inactive: > 100 µM. As to `CCOC(=O)C1=C(C)N(Cc2ccccc2)C2(O)C=CC(=O)C3C(=O)N(c4ccccc4)C(=O)C132` (stereo not given), the GI50 is inactive: 13.4 µM. Then `N#CC1(Cc2ccccc2[N+](=O)[O-])c2ccccc2C2C(N1C(=O)c1ccccc1)C2(Cl)Cl` (stereo not given), with inactive: > 100 µM. Then `CCCCNC(=O)C1=C(C)NC(C)=C(C(=O)NCCCC)C1`, with inactive: > 100 µM; and `Cc1nc2ccc(Cl)cc2c2c1CCO2`, with inactive: 51.1 µM; and `N#C/N=C1\NC(Cc2ccccc2)C(=O)N1CCc1c[nH]c2ccccc12` (stereo not given), with inactive: 59.7 µM. To `CCCC(=O)OCC1OC(n2cc(F)c(=O)[nH]c2=O)CC1O` (stereo not given) belongs inactive: 3.1 µM. `OCCCc1ccc2c(c1)[C@H](CO)[C@@H](c1ccc(O)cc1)O2`: the GI50 is inactive: > 100 µM.

With `CCOC(=O)C(Cc1ccc(N(CCCl)CCCl)cc1)NC(=O)CCCN1C(=O)CN=C(c2ccccc2)c2cc(Cl)ccc21` (stereo not given), the GI50 was inactive: 53.2 µM. Take `COc1ccc(/N=N/C(=N/NC(=O)c2ccccc2)c2ccc(N(CCC#N)CCC#N)cc2C)cc1`: the GI50 is inactive: 60.4 µM. To `COc1ccc2/c(=C/c3ccc(N(C)C)cc3)c3cc(-c4ccccc4)[n+](C)n3c2c1` belongs active: 0.745 µM; to `c1cnc2c(c1)-n1cccc1C1(CCOCC1)NN2`, inactive: > 100 µM; to `N#Cc1c(-c2cccc(Cl)c2)cc(-c2ccc(Cl)cc2)nc1N`, inactive: 22.2 µM. To `CC1(C)N=C(N)N=C(N)N1c1ccc(OCC(=O)Nc2cccc(S(=O)(=O)F)c2)c(Cl)c1` belongs inactive: 24.3 µM; to `NS(=O)(=O)c1nc(S(=O)(=O)O)c2[nH]cnc2n1`, inactive: > 100 µM.

Turning to `COC12OCCN(C)C1=CC(=O)C1=NNC(C)C12` (stereo not given), the GI50 was inactive: > 100 µM. To `O=[N+]([O-])c1cc(Cl)ccc1S(=O)(=O)c1ccccc1` belongs inactive: > 100 µM; to `Clc1cccc(C2ON=C(c3ccccc3)N2C23CC4CC(CC(C4)C2)C3)c1Cl` (stereo not given), inactive: > 10 µM; to `CC(=O)C(=[N+]=[N-])C(=O)OCCOC(=O)C(=[N+]=[N-])C(C)=O`, active: > 1 µM. Then `CCOC(=O)Cn1nc2ccc(Nc3nc4ccccc4nc3C(=O)OCC)cc2n1`, with inactive: 92.9 µM. To `O=C(CCc1nnc(S)[nH]1)Nc1cc(Cl)ccc1Cl` belongs inactive: > 100 µM. Take `O=[N+]([O-])c1cc(Cl)ccc1OCc1ccccc1`: the GI50 is inactive: > 100 µM. To `CCOC(=O)CSc1nc(N)c2c(-c3ccc(OC)c(OC)c3)c3c(nc2n1)CCCC3` belongs inactive: > 100 µM; to `COC(=O)C(C(=O)C(=O)Nc1ccc(N)cc1[N+](=O)[O-])c1nc2ccc(Cl)cc2nc1O` (stereo not given), inactive: > 100 µM; to `C[N+](C)(CCNC(=O)c1cccc2cc3ccccc3nc12)Cc1ccc([N+](=O)[O-])cc1`, inactive: > 100 µM. To `CCN(CC)C(=O)COc1ccc(Br)cc1Br` belongs inactive: > 100 µM; to `CC(=O)N(N=O)c1ccc(N(N=O)C(C)=O)cc1`, inactive: > 100 µM. To `CC[C@]1(Cc2ccc(OC)c(OC)c2)C=[N+]([O-])O[C@H](OC2CCCC2(c2ccccc2)c2ccccc2)[C@@H]1OC(=O)C(C)(C)C` (stereo not given in full) belongs inactive: 4.56 µM. Regarding `N#Cc1cccc(Nc2ccccc2SSc2ccccc2Nc2cccc(C#N)c2)c1`, the GI50 is inactive: 16.4 µM. Then `Cc1ccc2nc(-c3ccccc3)c(N=O)n2c1`, with inactive: 57.1 µM. To `CCOC(=O)C1=NC(c2ccccc2)(c2ccccc2)OC1=C(Cl)Cl` belongs inactive: > 100 µM; to `CNC(=O)N(CCC#N)CCCN(C(=O)NC)c1ccccc1`, inactive: > 100 µM. To `C/C(CC(=O)Nc1ccc(C)c(C)c1)=N\NC(N)=S` belongs inactive: > 100 µM; to `O=C(c1c2c(cc3c1CC1(Cc4cc5c(cc4C1)CCCC5)C3)CCCC2)C(Br)Br`, inactive: > 57.7 µM. On to `OCCCCCCOc1ccc(-c2cc(-c3ccccn3)nc(-c3ccccn3)c2)cc1`, for which the GI50 was active: 0.0583 µM. To `Cc1c(NC(=O)c2cc([N+](=O)[O-])cc([N+](=O)[O-])c2)c(=O)n(-c2ccccc2)n1C` belongs inactive: > 100 µM; to `CN(C)CC1CCC/C1=N\O` (stereo not given), inactive: > 100 µM; to `CC1C(=O)CC[C@@]2(C)C(=O)CCCC12O` (stereo not given in full), inactive: > 100 µM. Then `Cc1nnc2nc(-c3ccc(Cl)cc3Cl)cc(-c3ccc(Cl)cc3)n12`, with inactive: > 100 µM; and `Fc1ccccc1C1SCC2=Nc3ccccc3CN21` (stereo not given), with inactive: 65.2 µM. To `c1ccc(CN(Cc2ccccn2)Cn2cccn2)nc1` belongs inactive: 39.5 µM. For the molecule `c1ccc(C2=NN(c3ccccc3)C3(S2)SC(c2ccccc2)(c2ccccc2)c2ccccc23)cc1` (stereo not given), the GI50 is inactive: > 100 µM.

For `COc1nc2c(c(O)c(C)c(=O)n2OC2OCC(OC(C)=O)C(OC(C)=O)C2OC(C)=O)c(=O)n1C` (stereo not given), the GI50 is inactive: > 100 µM.

For `OCC(O)C(Cl)CCl` (stereo not given), the GI50 is inactive: > 100 µM. Consider `COc1cc(C(c2cccc3ccccc23)N2C(=O)CCC2C(=O)NCc2ccccc2)cc(OC)c1OC` (stereo not given), for which the GI50 is inactive: > 100 µM. Then `O=C(Nc1c(Cl)cccc1Cl)c1c(Cl)c(Cl)c(Cl)c(Cl)c1-c1nc2ccccc2[nH]1`, with active: 0.0721 µM; and `C/C=C(/C)C(=O)O[C@H]1[C@H](O)CC(c2ccc3c(c2O)C(=O)C2=C(O)C4(OC)C(=O)C(C(N)=O)=C(O)[C@H](CC(=O)c5ccccc5O)C4CC2[C@@]3(C)OC)O[C@@H]1C` (stereo not given in full), with active: 0.0211 µM; and `COc1ccc2c(CCNC(=O)/C=C/c3ccccc3)c(C(C)=O)[nH]c2c1[N+](=O)[O-]`, with inactive: 33.9 µM. `O=C1NC(Cc2c[nH]c3ccccc23)C(=O)N2C(c3ccccc3)c3[nH]c4ccccc4c3C[C@@H]12` (stereo not given in full): the GI50 was inactive: 26.4 µM. To `O=c1c(C(c2ccc(/C=C/c3ccccc3)cc2)c2c(O)oc3cc(O)ccc3c2=O)c(O)oc2cc(O)ccc12` belongs inactive: > 100 µM; to `COC(=O)C1c2cc3c(c(O)c2CCC1(C)O)C(=O)c1c(O)cc2c(c1C3=O)OC1OC2(C)C(O)C(N(C)C)C1O` (stereo not given), active: 0.194 µM.

With `CC(=O)Nc1cc2cc(NS(=O)(=O)c3cc(C(F)(F)F)cc(C(F)(F)F)c3)ccc2oc1=O`, the GI50 was inactive: > 100 µM.

On to `COc1ccc(-c2nc3cc(F)ccc3s2)cc1O`, for which the GI50 is inactive: 45 µM.

For the origin of these results see ChEMBL document CHEMBL1201862, “PubChem BioAssay data set” (2004).
